The record followed here is PubChem BioAssay AID1347073 (National Center for Advancing Translational Sciences (NCATS), 2019).

About 200 (0.44%) of roughly 45,000 compounds were called active. Inconclusive results (about 7%) are left out. Calls come from the whole dose curve; as a rule, active = well fitted activation curve with a large enough effect; inconclusive = small, poorly fitted or top-dose-only effect; inactive = no such curve, though single readings can be large or run the other way. Some of the results follow.

The experiment can be described thus: qHTS of TDP-43 Inhibitors: NCGC Sytravon Library Screen. Note: 0% is about no effect; nearly all actives have a fitted effect of over 55% in size. The following applies: yeast TDP-43 toxicity rescue, BacTiter-Glo growth, 24 h; series mostly up to 46.1 µM; growth rescue (activation): at the top concentration. The procedure, abridged:
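TDP-43-expressing yeast, pregrown in raffinose, seeded at OD600 0.02 in galactose medium with compound for 24 hr at 30 deg C. Growth read by BacTiter-Glo luminescence, so rescue of toxicity appears as activation.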
On to `COCCNc1ccc(N2C(=O)CCCC2=O)cc1[N+](=O)[O-]`, for which the “growth rescue (activation)” value is inactive: 2.17%.

As to `CC(OC(=O)c1ccc(S(=O)(=O)NCc2ccco2)cc1)C(=O)Nc1ncc(Cl)cc1Cl` (stereo not drawn), the “growth rescue (activation)” value was inactive: 5.91%.

As for `COc1ccc(C(C)(NC(C)=O)c2nc(-c3cncnc3)cs2)cc1` (stereo not drawn), the “growth rescue (activation)” value was inactive: 1.33%.

As for `O=C(CN1CCc2ccccc2C1)Nc1cc(S(=O)(=O)N2CCOCC2)ccc1N1CCOCC1`, the “growth rescue (activation)” value was inactive: -0.905%.

On to `Cc1c(C(=O)N2CCC(C)(C(=O)NS(=O)(=O)C3CC3)C2)oc2ccccc12` (stereo not drawn), for which the “growth rescue (activation)” value was inactive: -9.51%.

On to `Cc1cccc(OCCCC(=O)Nc2ccc(N(C)C)cc2)c1`, for which the “growth rescue (activation)” value was inactive: 8.4%.

As to `COc1ccc(NC(=O)c2nc(C)n(-c3ccc([N+](=O)[O-])cc3)n2)cc1`, the “growth rescue (activation)” value is inactive: 25.4%.

In the case of `CC(C)C(C)NC(=O)CN1C(=O)NC(C)(c2ccc3ccccc3c2)C1=O` (stereo not drawn), the “growth rescue (activation)” value was inactive: 1.05%.

With `CCOc1ccc(S(=O)(=O)N(CCO)CCO)cc1-c1nc2c(C(C)(C)C)nn(C)c2c(=O)[nH]1`, the “growth rescue (activation)” value was inactive: 10.1%.

On to `CC1(C)CC(=O)C(C2c3ccccc3S(=O)(=O)c3ccccc32)C(=O)C1`, for which the “growth rescue (activation)” value was inactive: -6.72%.

`CN(c1ccccc1)S(=O)(=O)c1cccc(NC(=O)CCNC(=O)c2ccc([N+](=O)[O-])cc2)c1`: the “growth rescue (activation)” value is inactive: -13%.

As to `Cc1cc(C)n(CCNC(=O)c2cc(COc3c(F)cccc3F)on2)n1`, the “growth rescue (activation)” value was inactive: 15.6%.

For the compound `CC(=O)c1cccc(NC(=O)C(C)N(C)CC(=O)Nc2ccc(Cl)cc2)c1` (stereo not drawn), the “growth rescue (activation)” value was inactive: 16.7%.

Turning to `O=C(c1ccc2c(c1)OCO2)N1CCN(CCN2C(=O)c3cccc4cccc(c34)C2=O)CC1`, the “growth rescue (activation)” value was inactive: 23.6%.

As for `Cc1ccc(-c2oc3ccccc3c(=O)c2OCC(=O)O)cc1`, the “growth rescue (activation)” value is inactive: -0.661%.

As to `Cc1cc(Cl)ccc1OCC(=O)OC(C)C(=O)N(C)C` (stereo not drawn), the “growth rescue (activation)” value was inactive: 11.9%.

Take `O=C(NC(=S)N1CCCCCC1)c1ccc(Cl)cc1Cl`: the “growth rescue (activation)” value is inactive: -1.76%.

For the compound `COc1ccc(-c2cc(C(F)(F)F)n3ncc(C(=O)N(C)Cc4ccccc4)c3n2)cc1`, the “growth rescue (activation)” value was inactive: 18.7%.

For the compound `O=C(N/N=C/C(Cl)=C/c1ccccc1)c1ccccc1F`, the “growth rescue (activation)” value is inactive: 9.33%.

Turning to `Cc1ccc(/C(N)=N/OC(=O)COc2ccc(Cl)c(C)c2)cc1`, the “growth rescue (activation)” value is inactive: -4.9%.

`O=c1c2ccccc2c(C=Nc2ccc(O)cc2)c(O)n1-c1nccs1`: the “growth rescue (activation)” value was inactive: 11.7%.

For the compound `O=C(NCc1ccco1)c1c(F)cccc1Cl`, the “growth rescue (activation)” value is inactive: 18.1%.

In the case of `CC(C)(/C=N/NC(=O)CSCc1ccccc1Cl)CCC#N`, the “growth rescue (activation)” value is inactive: -3.72%.

Turning to `CCC1(CC)NC(=O)N(CC(=O)Nc2sc3c(c2C(N)=O)CCC3)C1=O`, the “growth rescue (activation)” value is inactive: 19%.

In the case of `CCNC(=S)N(CCc1cccc(C)c1)Cc1cc2cc(OC)c(OC)cc2[nH]c1=O`, the “growth rescue (activation)” value is inactive: -19.7%.

On to `CS(=O)(=O)N(CC(=O)N1CCCCC1)c1sc2c(c1C#N)CCCC2`, for which the “growth rescue (activation)” value was inactive: 27.8%.

Turning to `COc1ccc(C(N)c2csc(Nc3ccc(C(=O)NCCCO)cn3)n2)cc1` (stereo not drawn), the “growth rescue (activation)” value was inactive: 13%.

With `CCc1ccc(NC(=O)CC2C(=O)NCCN2C(=O)c2ccccc2OC)cc1` (stereo not drawn), the “growth rescue (activation)” value is inactive: 5.24%.

For `Cc1cc(C)nc(N/N=C/c2cc(Br)ccc2O)n1`, the “growth rescue (activation)” value is inactive: -20.1%.

Take `Cc1cccc(-c2n[nH]c(=S)n2-c2ccccc2)c1[N+](=O)[O-]`: the “growth rescue (activation)” value is inactive: 18.2%.

Take `COC(=O)c1ccc(NC2c3ncccc3C(=O)N2Cc2cccs2)cc1` (stereo not drawn): the “growth rescue (activation)” value is inactive: -8.79%.

Consider `CCN1CCN(c2ncc(C(=O)Nc3cc(Cl)ccc3OC)c3ccccc23)CC1`, for which the “growth rescue (activation)” value was inactive: -3.01%.

In the case of `COc1ccc(-c2nc(O)c3cnccn23)cc1`, the “growth rescue (activation)” value is inactive: 5.94%.

For the compound `CC(c1nnnn1C1CCCCC1)N(Cc1ccccc1)Cc1cccnc1` (stereo not drawn), the “growth rescue (activation)” value is inactive: 27.3%.

For `Cc1ccc(S(=O)(=O)N2CCCCC2)cc1NC(=O)CSc1nnc(C2CC2)n1C`, the “growth rescue (activation)” value is inactive: -2.85%.

`O=c1cc(CSc2nnc(COc3ccccc3)n2-c2ccccc2)c2ccccc2[nH]1`: the “growth rescue (activation)” value is inactive: 15%.

Consider `COc1ccc(OC)c(NC(=O)CCNC(=O)Cn2ccc3ccccc3c2=O)c1`, for which the “growth rescue (activation)” value is inactive: -1.89%.

As for `COC(=O)c1ccccc1NC(=O)CNCCc1ccc(OC)c(OC)c1`, the “growth rescue (activation)” value was inactive: -5.44%.

Take `CCc1ccccc1NC(=O)COc1ccc(N2CC(C(N)=O)CC2=O)cc1` (stereo not drawn): the “growth rescue (activation)” value was inactive: 9.83%.

Turning to `Cc1ccc(S(=O)(=O)N2CCN(C)CC2)c2nsnc12`, the “growth rescue (activation)” value was inactive: 3.64%.

For the compound `CC(=O)c1ccc(OC(C)C(=O)NCC2(N3CCOCC3)CCCCC2)cc1` (stereo not drawn), the “growth rescue (activation)” value is inactive: 20.7%.

`N#Cc1ccccc1Sc1ccccc1C(=O)OCC(=O)NC1CCS(=O)(=O)C1` (stereo not drawn): the “growth rescue (activation)” value is inactive: -2.92%.

Take `CCOC(=O)C1=C(CC)OC(N)=C(C#N)C1c1ccc(OC)c(C)c1OC` (stereo not drawn): the “growth rescue (activation)” value is inactive: 5.73%.

Regarding `CCN(CC)C(=O)CSc1nc(C)cc(C)c1C#N`, the “growth rescue (activation)” value was inactive: 4.39%.

With `COC(=O)CN1C(=O)C(O)(CC(=O)c2ccccc2)c2ccccc21` (stereo not drawn), the “growth rescue (activation)” value was inactive: -0.464%.

`O=C(O)COn1c(-c2ccccc2)nc2ccc([N+](=O)[O-])cc21`: the “growth rescue (activation)” value was inactive: -1.64%.

`C=CCN(CC(=O)NCC1CCCO1)C(=O)CCC(=O)Nc1cc(C)on1` (stereo not drawn): the “growth rescue (activation)” value was inactive: 10.5%.

Take `CC(=O)Nc1ccc(NC(=S)NC(=O)/C=C/c2ccccc2)cc1`: the “growth rescue (activation)” value is inactive: 0.0178%.

Take `O=C(CCCC(=O)Nc1ccccc1Br)N/N=C/c1c(F)cccc1Cl`: the “growth rescue (activation)” value was inactive: 18.2%.

With `O=C(Oc1ccc(N(C(=O)c2ccncc2)S(=O)(=O)c2ccc(F)cc2)cc1)c1ccncc1`, the “growth rescue (activation)” value is inactive: 20.7%.

As for `O=C(NNC(=O)C1CC1)c1ccc(F)cc1F`, the “growth rescue (activation)” value is inactive: -5.49%.

With `Cn1c(=O)n(C)c2cc(NS(=O)(=O)c3ccc(C(C)(C)C)cc3)ccc21`, the “growth rescue (activation)” value is inactive: -2.16%.

As for `S=c1[nH]nc(NCCc2ccccc2)s1`, the “growth rescue (activation)” value is inactive: 24.1%.
